Results taken from the supplement of paper PMC8728848.
The other results are listed elsewhere or left out.

Key:
Assay in all cases: glycan array binding signal (z-score within array); higher = stronger binding
Settings in all cases: glycan notation: IUPAC condensed, linker removed
[1] = molecular target: Man(a1-2)Man(a1-3)[Man(a1-2)Man(a1-6)]Man(a1-6)[Man(a1-2)Man(a1-2)Man(a1-3)]Man
Method in brief: (§1)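 The binding signal is a Z-score computed within each array and averaged over linkers. Arrays of the same protein sequence at different concentrations or buffers were also averaged together. Data originate from 3228 arrays in the Consortium for Functional Glycomics database, kept only where the protein sequence was available.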

[2] = molecular target: Man(a1-2)Man(a1-3)[Man(a1-2)Man(a1-6)]Man(a1-6)[Man(a1-2)Man(a1-2)Man(a1-3)]Man(b1-4)GlcNAc(b1-4)GlcNAc
Method in brief: as §1

[3] = molecular target: Man(a1-2)Man(a1-3)[Man(a1-6)]Man(a1-6)[Man(a1-2)Man(a1-3)]Man(b1-4)GlcNAc(b1-4)GlcNAc
Method in brief: as §1

[4] = molecular target: Man(a1-2)Man(a1-6)[Man(a1-3)]Man(a1-6)[Man(a1-2)Man(a1-2)Man(a1-3)]Man
Method in brief: as §1

[5] = molecular target: Man(a1-2)Man(a1-6)[Man(a1-3)]Man(a1-6)[Man(a1-2)Man(a1-2)Man(a1-3)]Man(b1-4)GlcNAc(b1-4)GlcNAc
Method in brief: as §1

[6] = molecular target: Man(a1-3)[Man(a1-6)]Man
Method in brief: as §1

[7] = molecular target: Man(a1-3)[Man(a1-6)]Man(a1-6)[Man(a1-2)Man(a1-3)]Man(b1-4)GlcNAc(b1-4)GlcNAc
Method in brief: as §1

[8] = molecular target: Man(a1-3)[Man(a1-6)]Man(a1-6)[Man(a1-3)]Man
Method in brief: as §1

[9] = molecular target: Man(a1-3)[Man(a1-6)]Man(a1-6)[Man(a1-3)]Man(b1-4)GlcNAc(b1-4)GlcNAc
Method in brief: as §1

[10] = molecular target: Man(a1-3)[Man(a1-6)]Man(b1-4)GlcNAc(b1-4)GlcNAc
Method in brief: as §1

[11] = molecular target: Man(a1-3)[Man(a1-6)]Man(b1-4)GlcNAc(b1-4)[Fuc(a1-6)]GlcNAc
Method in brief: as §1

[12] = molecular target: Man(a1-6)Man
Method in brief: as §1

[13] = molecular target: Man(b1-4)GlcNAc
Method in brief: as §1

[14] = molecular target: MurNAc(b1-4)GlcNAc
Method in brief: as §1

[15] = molecular target: Neu5Ac(a2-3)Gal
Method in brief: as §1

[16] = molecular target: Neu5Ac(a2-3)Gal(b1-3)GalNAc
Method in brief: as §1

[17] = molecular target: Neu5Ac(a2-3)Gal(b1-3)GalNAc(b1-3)Gal(a1-4)Gal(b1-4)Glc
Method in brief: as §1

[18] = molecular target: Neu5Ac(a2-3)Gal(b1-3)GalNAc(b1-4)[Neu5Ac(a2-3)]Gal(b1-4)Glc
Method in brief: as §1

[19] = molecular target: Neu5Ac(a2-3)Gal(b1-3)GalNAc(b1-4)[Neu5Ac(a2-8)Neu5Ac(a2-3)]Gal(b1-4)Glc
Method in brief: as §1

[20] = molecular target: Neu5Ac(a2-3)Gal(b1-3)GalNAc6S
Method in brief: as §1

[21] = molecular target: Neu5Ac(a2-3)Gal(b1-3)GlcNAc
Method in brief: as §1

[22] = molecular target: Neu5Ac(a2-3)Gal(b1-3)GlcNAc(b1-2)Man
Method in brief: as §1

[23] = molecular target: Neu5Ac(a2-3)Gal(b1-3)GlcNAc(b1-2)Man(a1-3)[GlcNAc(b1-4)][Neu5Ac(a2-3)Gal(b1-3)GlcNAc(b1-2)Man(a1-6)]Man(b1-4)GlcNAc(b1-4)GlcNAc
Method in brief: as §1

[24] = molecular target: Neu5Ac(a2-3)Gal(b1-3)GlcNAc(b1-2)Man(a1-3)[Neu5Ac(a2-3)Gal(b1-3)GlcNAc(b1-2)Man(a1-6)]Man(b1-4)GlcNAc(b1-4)GlcNAc
Method in brief: as §1

[25] = molecular target: Neu5Ac(a2-3)Gal(b1-3)GlcNAc(b1-3)Gal(b1-3)GlcNAc
Method in brief: as §1

[26] = molecular target: Neu5Ac(a2-3)Gal(b1-3)GlcNAc(b1-3)Gal(b1-4)GlcNAc
Method in brief: as §1

[27] = molecular target: Neu5Ac(a2-3)Gal(b1-3)GlcNAc(b1-3)GalNAc
Method in brief: as §1

[28] = molecular target: Neu5Ac(a2-3)Gal(b1-3)GlcNAc(b1-4)Gal(b1-4)Glc
Method in brief: as §1

[29] = molecular target: Neu5Ac(a2-3)Gal(b1-3)GlcNAc(b1-6)GalNAc
Method in brief: as §1

[30] = molecular target: Neu5Ac(a2-3)Gal(b1-3)GlcNAc6S
Method in brief: as §1

[31] = molecular target: Neu5Ac(a2-3)Gal(b1-3)[Fuc(a1-4)]GlcNAc
Method in brief: as §1

[32] = molecular target: Neu5Ac(a2-3)Gal(b1-3)[Fuc(a1-4)]GlcNAc(b1-3)Gal(b1-3)[Fuc(a1-4)]GlcNAc
Method in brief: as §1

[33] = molecular target: Neu5Ac(a2-3)Gal(b1-3)[Fuc(a1-4)]GlcNAc(b1-3)Gal(b1-4)[Fuc(a1-3)]GlcNAc
Method in brief: as §1

[34] = molecular target: Neu5Ac(a2-3)Gal(b1-3)[GlcNAc(b1-6)]GalNAc
Method in brief: as §1

[35] = molecular target: Neu5Ac(a2-3)Gal(b1-3)[Neu5Ac(a2-6)]GalNAc
Method in brief: as §1

[36] = molecular target: Neu5Ac(a2-3)Gal(b1-3)[Neu5Ac(a2-6)]GlcNAc(b1-3)[Fuc(a1-3)[Gal(b1-4)]GlcNAc(b1-6)]Gal(b1-4)Glc
Method in brief: as §1

[37] = molecular target: Neu5Ac(a2-3)Gal(b1-3)]Neu5Ac(a2-3)Gal(b1-4)]GlcNAc
Method in brief: as §1

[38] = molecular target: Neu5Ac(a2-3)Gal(b1-4)Glc
Method in brief: as §1

[39] = molecular target: Neu5Ac(a2-3)Gal(b1-4)GlcNAc
Method in brief: as §1

[40] = molecular target: Neu5Ac(a2-3)Gal(b1-4)GlcNAc(b1-2)Man
Method in brief: as §1

[41] = molecular target: Neu5Ac(a2-3)Gal(b1-4)GlcNAc(b1-2)Man(a1-3)[GlcNAc(b1-4)][Neu5Ac(a2-3)Gal(b1-4)GlcNAc(b1-2)Man(a1-6)]Man(b1-4)GlcNAc(b1-4)GlcNAc
Method in brief: as §1

[42] = molecular target: Neu5Ac(a2-3)Gal(b1-4)GlcNAc(b1-2)Man(a1-3)[Neu5Ac(a2-3)Gal(b1-4)GlcNAc(b1-2)Man(a1-6)]Man(b1-4)GlcNAc(b1-4)GlcNAc
Method in brief: as §1

[43] = molecular target: Neu5Ac(a2-3)Gal(b1-4)GlcNAc(b1-2)Man(a1-3)[Neu5Ac(a2-3)Gal(b1-4)GlcNAc(b1-2)Man(a1-6)]Man(b1-4)GlcNAc(b1-4)[Fuc(a1-6)]GlcNAc
Method in brief: as §1

[44] = molecular target: Neu5Ac(a2-3)Gal(b1-4)GlcNAc(b1-2)Man(a1-3)[Neu5Ac(a2-6)Gal(b1-4)GlcNAc(b1-2)Man(a1-6)]Man(b1-4)GlcNAc(b1-4)GlcNAc
Method in brief: as §1

[45] = molecular target: Neu5Ac(a2-3)Gal(b1-4)GlcNAc(b1-2)[Neu5Ac(a2-3)Gal(b1-4)GlcNAc(b1-4)]Man(a1-3)[GlcNAc(b1-4)][Neu5Ac(a2-3)Gal(b1-4)GlcNAc(b1-2)[Neu5Ac(a2-3)Gal(b1-4)GlcNAc(b1-6)]Man(a1-6)]Man(b1-4)GlcNAc(b1-4)GlcNAc
Method in brief: as §1

B1: MPA (Maclura pomifera), P18674 (protein)
chain: GVTFDDGAYTGIREINFEYNSETAIGGLRVTYDLNGMPFVAEDHKSFITGFKPVKISLEFPSEYIVEVSGYVGKVEGYTVIRSLTFKTNKQTYGPYGVTNGTPFSLPIENGLIVGFKGSIGYWLDYFSIYLSL
glycan array binding signal (z-score) [1]: -0.215 | glycan array binding signal (z-score) [2]: -0.039 | glycan array binding signal (z-score) [3]: -0.168 | glycan array binding signal (z-score) [4]: -0.221 | glycan array binding signal (z-score) [5]: -0.253 | glycan array binding signal (z-score) [6]: -0.198 | glycan array binding signal (z-score) [7]: 0.811 | glycan array binding signal (z-score) [8]: -0.079 | glycan array binding signal (z-score) [9]: -0.159 | glycan array binding signal (z-score) [10]: -0.177 | glycan array binding signal (z-score) [11]: -0.407 | glycan array binding signal (z-score) [12]: -0.169 | glycan array binding signal (z-score) [13]: -0.175 | glycan array binding signal (z-score) [14]: -0.191 | glycan array binding signal (z-score) [15]: -0.241 | glycan array binding signal (z-score) [16]: -0.313 | glycan array binding signal (z-score) [17]: -0.249 | glycan array binding signal (z-score) [18]: -0.301 | glycan array binding signal (z-score) [19]: -0.179 | glycan array binding signal (z-score) [20]: -0.265 | glycan array binding signal (z-score) [21]: -0.242 | glycan array binding signal (z-score) [22]: 1.21 | glycan array binding signal (z-score) [23]: -0.221 | glycan array binding signal (z-score) [24]: 0.387 | glycan array binding signal (z-score) [25]: -0.121 | glycan array binding signal (z-score) [26]: -0.339 | glycan array binding signal (z-score) [27]: -0.213 | glycan array binding signal (z-score) [28]: -0.183 | glycan array binding signal (z-score) [29]: -0.227 | glycan array binding signal (z-score) [30]: -0.098 | glycan array binding signal (z-score) [31]: -0.234 | glycan array binding signal (z-score) [32]: -0.121 | glycan array binding signal (z-score) [33]: -0.08 | glycan array binding signal (z-score) [34]: -0.297 | glycan array binding signal (z-score) [35]: 0.304 | glycan array binding signal (z-score) [36]: -0.233 | glycan array binding signal (z-score) [37]: -0.167 | glycan array binding signal (z-score) [38]: -0.064 | glycan array binding signal (z-score) [39]: -0.212 | glycan array binding signal (z-score) [40]: -0.076 | glycan array binding signal (z-score) [41]: -0.414 | glycan array binding signal (z-score) [42]: -0.136 | glycan array binding signal (z-score) [43]: -0.25 | glycan array binding signal (z-score) [44]: -0.284 | glycan array binding signal (z-score) [45]: -0.101
